# Hit rate of the full screen: of about 52,000 compounds, about 4,300 (8.3%) were called active. Rule as the data show it: active = survival mostly below about 52% (no sharp cut-off); inactive = mostly above about 56%. The list shows a part of the results.
# Test system: DeltatarO mutant
# Assay: growth inhibition of S. aureus wild type versus tarO mutant, primary screen, teichoic acid synthesis inhibitors, RN4220, OD600 (AID 463173)
# Details: OD600, 18 h, active compounds read low, screened at 18.75 µg/mL (by protocol)
row,Compound,survival
1,CCC(c1nnnn1C(C)(C)CC)N(Cc1cc2ccc(C)cc2[nH]c1=O)C1CCCC1 (stereo not given),inactive: 92%
2,Cc1ccccc1-c1nc(NC(=O)CSc2ncnc3sc4c(c23)CCCC4)ns1,inactive: 92%
3,Cc1cccc(NC(=O)CSc2nc3ccccc3c3nc(CCn4cncc4C)nn23)c1,inactive: 78%
4,CC(C)c1ccc(NC(=O)c2cc3c(=O)oc4ccccc4c3s2)cc1,inactive: 46%
5,CCOc1ccc(CCNC(=O)c2cc3c(=O)n(C)c4ccccc4c3s2)cc1OCC,inactive: 56%
6,COc1ccccc1NC(=O)c1sc2cccc(Cl)c2c1Cl,inactive: 64%
7,O=C(c1cccnc1)N1CCC(Cc2ccccc2)CC1,inactive: 104%
8,CCCC12CN3CC(C)(CN(C1)C3c1ccc(CC)cc1)C2=O (stereo not given),inactive: 87%
9,CCc1ccc(OCC(=O)NCC(c2ccc(Cl)cc2)N2CCOCC2)cc1 (stereo not given),inactive: 93%
10,O=S(=O)(Nc1ccc(-c2ccc(N3CCCCCC3)nn2)cc1)c1ccc(C(F)(F)F)cc1,inactive: 101%
11,Cc1nn(-c2ccccc2)c2c1cc1c(=O)[nH]c(=O)nc-1n2-c1cccc(C(F)(F)F)c1,inactive: 121%
12,Cc1ccc(-n2nc3c(=O)n(CCCC(=O)NCc4ccc(F)cc4)nc(C)c3c2C)cc1,inactive: 78%
13,Cc1cc(C)c(S(=O)(=O)NCC(c2ccco2)N2CCN(c3ccccc3)CC2)c(C)c1 (stereo not given),inactive: 77%
14,O=C(CN1CCN(Cc2ccc(F)cc2)C1=O)NCc1ccccc1,inactive: 107%
15,Cc1ccccc1SCC(=O)O,inactive: 72%
16,Cc1ccc2c(c1)-c1onc(C(=O)N3CCN(c4cccc(C)c4C)CC3)c1CO2,inactive: 68%
17,CCCCN(CCCC)C(=O)c1cc2c(=O)n3ccccc3nc2s1,active: 39%
18,CCCC1C2CN(C(C)C)CC=C2C(C#N)=C(N)C1(C#N)C#N (stereo not given),inactive: 79%
19,Cc1cccc(N2CCN(S(=O)(=O)c3ccc(F)c(C(=O)Nc4cccc(Cl)c4C)c3)CC2C)c1 (stereo not given),inactive: 85%
20,CCNC(=O)c1c(NC(=O)c2cc(=O)c3ccc(C)c(C)c3o2)sc2c1CCCC2,inactive: 66%
21,CC1CCCCN1S(=O)(=O)c1ccc(NC(=O)C2COc3ccccc3O2)cc1 (stereo not given),inactive: 97%
22,O=C(NC1CC2CCC(C1)N2C(=O)NC1CCCCC1)NC12CC3CC(CC(C3)C1)C2 (stereo not given),inactive: 75%
23,COc1ccccc1C(OC(=O)c1ccco1)C(=O)NCC1CCCO1 (stereo not given),inactive: 85%

row,Compound,survival
1,Cc1ccccc1CSc1nc(-c2ccccc2)nc2c1Cc1c(CO)cnc(C)c1O2,inactive: 106%
2,COc1cccc(C(=O)NCC(c2ccc(N(C)C)cc2)N2CCOCC2)c1OC (stereo not given),inactive: 124%
3,CC[N+](C)(C)Cc1ccco1,inactive: 80%
4,Cc1cccc(OCC(=O)N(Cc2cccc(Cl)c2)Cc2ccco2)c1C,inactive: 69%
5,CC(C)S(=O)(=O)c1oc(-c2ccc(F)cc2)nc1S(=O)(=O)c1ccc(F)cc1,active: 22%
6,COc1ccc2cc(-c3cn4c(n3)sc3cc(F)ccc34)c(=O)oc2c1,inactive: 77%
7,Cc1ccc(S(=O)(=O)c2nc(-c3ccccc3)oc2N2CCCCCC2)cc1,active: 22%
8,Cc1ccc(S(=O)(=O)N2CC=C(c3ccc(F)cc3)CC2)cc1,inactive: 87%
9,Cc1ccc(C)c(N2CCN(C(=O)c3cc(S(=O)(=O)N4CCCCC4)cn3C)CC2)c1,inactive: 71%
10,COc1ccc2[nH]cc(CCNC(=O)Nc3ccc(F)cc3)c2c1,inactive: 87%
11,O=C(c1ccc(CSc2nc3ccncc3n2Cc2ccccc2F)cc1)N1CCCCCC1,inactive: 69%
12,CCCC(=O)Nc1nnc(SCc2cc(=O)c3cc(C)ccc3[nH]2)s1,inactive: 75%
13,CC(C)CCNC(=O)N1CCN(S(=O)(=O)c2ccc3c(ccn3C)c2)CC1,inactive: 89%
14,CCCCNC(=O)CCn1c(=O)c2ccccc2n(Cc2cc(C)ccc2C)c1=O,inactive: 83%
15,COc1cccc(C2=NN(C(C)=O)C(c3cn(-c4ccccc4)nc3-c3cccs3)C2)c1 (stereo not given),inactive: 170%
16,CCOc1ccc(CCNC(=O)CCc2cn(Cc3ccc(C)cc3)c3ccccc23)cc1,inactive: 69%
17,CCC(=O)Nc1ccccc1-c1nc2ccccc2n(C(CC)C(=O)Nc2cccc(C(C)=O)c2)c1=O (stereo not given),inactive: 91%
18,CCCCN(CC)CCCn1cnc2c([nH]c3ccc(Cl)cc32)c1=O,inactive: 110%
19,CC(C)(C)C1CCc2nc(NC(=O)COc3ccc(F)cc3)sc2C1 (stereo not given),inactive: 115%
20,O=C(N/N=C/c1ccco1)C1CN(S(=O)(=O)c2ccccc2)CCN1S(=O)(=O)c1ccccc1 (stereo not given),active: 1%
21,CC(=O)Nc1ccc(-n2cc3c(c2-c2ccc(C)cc2)c(=O)n(C)c(=O)n3C)cc1,inactive: 92%
22,CC(C)(C)c1ccc(OCCSc2nc(-c3cccs3)nc3cc(=O)[nH]n23)cc1,inactive: 78%
23,Cc1oc(-c2ccc(C(=O)Nc3ccc(F)cc3F)cc2)nc1COc1ccccc1,inactive: 89%

row,Compound,survival
1,O=C(Cn1ncc2c3ccccc3n(Cc3ccc(Cl)cc3)c2c1=O)NCCCc1ccccc1,inactive: 93%
2,COc1ccc(Nc2oc(-c3ccc(COc4ccc(OC)cc4)o3)nc2C#N)cc1,inactive: 64%
3,Cc1csc(N(C)C(=O)CSc2nnc(COc3cccc4ccccc34)o2)n1,inactive: 56%
4,CC(C)c1ccc(Nc2cc(C(=O)NCCc3ccccc3)c3ccccc3n2)cc1,inactive: 81%
5,CCC12C=CCN3CCC4(c5ccc(OC)cc5NC4C(O)(C(=O)OC)C1OC(C)=O)C32 (stereo not given),inactive: 88%
6,NCC1OCCc2ccccc21 (stereo not given),inactive: 84%
7,CCc1ccccc1N1CC(c2nc3ccccc3n2CC(C)C)CC1=O (stereo not given),inactive: 78%
8,CCC(C)NC(=O)C1CCN(C(=O)c2cc3sccc3n2Cc2ccc(Cl)cc2)CC1 (stereo not given),active: 45%
9,Cc1ccc(C)c(S(=O)(=O)c2nnn3c2nc(N2CCCC2)c2sccc23)c1,inactive: 86%
10,CCCCN(CC)c1ncnc2c1sc1nc(N3CCOCC3)c3c(c12)CCCC3,active: 35%
11,Cc1cccn2c(=O)c3cc(C(=O)NCCc4ccc(S(N)(=O)=O)cc4)n(C)c3nc12,inactive: 71%
12,COc1ccc(OC)c(C2C(C(N)=O)=C(C)Nc3nc(-c4cccc(Cl)c4)nn32)c1 (stereo not given),inactive: 113%
13,Cc1ccc(-c2ccc(C#N)c(=O)n2CC(=O)N(C)C)cc1,inactive: 80%
14,CCC(C)NC(=S)N1CCN(C)CC1 (stereo not given),inactive: 67%
15,COc1ccc(CCNC(=O)CCn2c(=O)c3ccccc3n(CC(=O)Nc3cccc(C)c3)c2=O)cc1OC,inactive: 79%
16,CC(=O)c1ccc(NC(=O)Cn2c(-n3nc(C)cc3C)nc(C)cc2=O)cc1,inactive: 75%
17,COc1cc(OC)cc(-c2nnc(SCC(=O)N3CCC(C)CC3)o2)c1,inactive: 100%
18,Cc1ccc2c(c1)cc1c(=O)n(CC(=O)NCc3ccco3)nc(C)n12,inactive: 84%
19,O=C1C(c2ccccc2)=C(c2ccccc2)C(=O)N1O,inactive: 107%
20,Cn1cc(C(=O)O)c(=O)c2cc(S(=O)(=O)N3CCCCC3)ccc21,inactive: 81%
21,Cc1ccc(CN2C(=O)c3ccccc3S(=O)(=O)c3ccc(C(=O)OCC4CCCO4)cc32)cc1 (stereo not given),inactive: 91%
22,CCN(C(=O)c1cc(S(=O)(=O)N2CCOCC2)cn1C)c1ccc(OC)cc1,inactive: 83%
23,CCOc1ccc(C(C)C)cc1S(=O)(=O)Nc1cccc(-c2ccc(N3CCOCC3)nn2)c1,inactive: 87%

row,Compound,survival
1,CCCC(=O)Oc1c(Sc2ccc(Cl)cc2)c(C)nn1-c1ccccc1,active: 23%
2,CCOc1nc(NC(=O)NS(=O)(=O)Oc2ccc(Cl)cc2)nc(-c2ccccc2)n1,inactive: 71%
3,Cc1ccc2c(c1)c1c(c(=O)n(-c3ccccc3C)c(=O)n1Cc1ccccc1F)n2C,inactive: 73%
4,COc1ccc(NC(=O)CCc2c(C)nc3c(-c4ccccc4)c(C)nn3c2C)cc1Cl,inactive: 85%
5,Cc1ccc(Cl)cc1NC(=O)Cn1c(=O)oc2cc(S(=O)(=O)N3CCCCCC3)ccc21,inactive: 67%
6,Cn1c(C(=O)NCc2ccc(Cl)cc2)cc2c(=O)n(C)c3ccccc3c21,inactive: 103%
7,COc1ccc(-c2noc(C(C)NC(=O)c3ccco3)n2)cc1 (stereo not given),inactive: 105%
8,Cc1ccc(NC(=O)c2ccc(=O)n(CC(=O)Nc3cc(C)cc(C)c3)n2)cc1,inactive: 80%
9,Fc1ccc(-n2ncc3c(Nc4ccc(Oc5ccccc5)cc4)ncnc32)cc1,inactive: 79%
10,Cc1cccc2c1-c1sc(C(=O)NCCCN3CCN(c4cccc(Cl)c4)CC3)cc1CO2,inactive: 98%
11,COc1cccc(C(=O)NC(c2ccc(Cl)cc2)c2cc(Cl)c3cccnc3c2O)c1 (stereo not given),inactive: 89%
12,FC(F)(F)c1ccc(C2=Nc3ccccc3NC(c3cccs3)=N2)cc1,inactive: 101%
13,Cc1nc(NC(=O)CSc2nc3cccnc3n2C2CCCCC2)sc1C,inactive: 74%
14,Cc1ccc(-n2nc(C)c3c(C)cc(=O)n(CC(=O)NCc4ccc(OC(C)C)cc4)c32)cc1,inactive: 98%
15,O=C(COc1ccc(F)cc1)Nc1cccc(OCc2cc(=O)n3ccccc3n2)c1,inactive: 102%
16,COc1ccc(Nc2ncc(C(=O)Nc3cc(C)ccc3OC)c3ccccc23)cc1,inactive: 50%
17,CC(=O)Nc1ccc(NC(=O)CSc2nnc3c4cc(Br)ccc4n(C)c3n2)cc1,inactive: 75%
18,O=C(O)C1C2C=CC3(CN(C(c4ccccc4)c4ccccc4)C(=O)C13)O2 (stereo not given),inactive: 100%
19,COC(=O)c1ccc2oc(=O)c(S(=O)(=O)c3ccc(C)cc3)cc2c1,inactive: 95%
20,CCCC(=O)Nc1cccc(-c2nc3cc(C)c(C)cc3o2)c1C,inactive: 57%
21,Cc1ccc(CNC(=O)C2CCN(c3nc4ccc(C)cc4[nH]3)CC2)cc1,inactive: 126%
